Laboratory results reported in the supplement of paper PMC3334620.
In all, about 33,000 sequences were measured (“E-score (-0.5 to 0.5)”: median about -0.056, highest 2% from about 0.38 on). Some of the results follow.

The sequences below were run against Stb4 (UniProt P50104) (assay: PBM E-score (8-mer binding enrichment) (E-score (-0.5 to 0.5)); higher = stronger / more preferred TF binding; most listed sequences are background and not binding sites). Conditions: protein concentration: 200 nM; construct: GST-DNA-binding domain.
Description: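 Universal 'all 10-mer' protein binding microarrays (Agilent AMADID 015681) probed with GST-tagged S. cerevisiae TFs (full-length or DBD) made by in vitro transcription/translation (PURExpress), about 100-200 nM. Bound TF was detected with fluorescent anti-GST. Each ungapped 8-mer (which stands for itself and its reverse complement) is scored by the PBM enrichment score (E-score), a modified Wilcoxon-Mann-Whitney statistic from -0.5 to +0.5, computed with the Universal PBM Analysis Suite. Scale: above 0.35 generally sequence-specific binding.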

| Sequence | PBM E-score |
| --- | --- |
| CACCTACG | 0.0326 |
| ATACTAGA | -0.0822 |
| CGCGGGTA | 0.314 |
| AACGACTG | -0.203 |
| TTCCAAAA | -0.0492 |
| AAATTTCC | 0.154 |
| AGTAGGAT | -0.0655 |
| ATGAGTTA | -0.143 |
| CAGTGGCA | -0.144 |
| CAGAATTA | 0.051 |
| AGGGATGA | -0.0856 |
| CAGCAAGG | -0.241 |
| GAGGAAGA | -0.0876 |
| ACAAATGT | 0.00648 |
| GTTCCATA | -0.0371 |
| TATATCGA | 0.0248 |
| GAGCGGAC | 0.0302 |
| ATTCACTA | -0.107 |
| GTGTACCA | -0.285 |
| CCAGGACC | -0.0453 |
| CTCGCGTA | -0.0649 |
| GATGTGGC | -0.0114 |

| Sequence | PBM E-score |
| --- | --- |
| GACTTCTC | -0.15 |
| CATTGTCA | -0.0657 |
| CGAAAGCA | 0.178 |
| AGGTAGAC | -0.154 |
| ATAGGGTC | -0.157 |
| CAACGTGG | -0.173 |
| CCAACCCC | -0.0947 |
| ACCATTAC | 0.0667 |
| TGCACCCA | -0.014 |
| GGACAACC | 0.0459 |
| CGAGGCCC | 0.0735 |
| CCCTGAGA | -0.232 |
| CCAACGTA | -0.333 |
| ATCCATGC | -0.0474 |
| GGTTTAGA | 0.0626 |
| AAGATCCG | 0.41 |
| ACTGTGCC | -0.0486 |
| CTAACGAC | -0.315 |
| TAGTATAA | -0.0253 |
| GCGTCCCA | -0.154 |
| AAAGCCCT | -0.106 |
| CGTAAGAC | -0.219 |

| Sequence | PBM E-score |
| --- | --- |
| ATCTGGGG | -0.235 |
| TGAAACAA | -0.124 |
| TACGCAGA | -0.0991 |
| AACCTCCG | 0.319 |
| CATATCGC | -0.055 |
| GGGGGAAC | -0.107 |
| ACCTGCAC | -0.0938 |
| GAAATTGC | 0.051 |
| GGTTACAC | 0.0135 |
| AAACCACG | 0.0125 |
| CCCGAGAC | 0.412 |
| ACAGAGAC | -0.0392 |
| CGCTAAGC | -0.103 |
| AGGACTGA | -0.0328 |
| AGTCATTA | -0.295 |
| ACACTCGC | 0.0245 |
| GTAGGTCA | -0.177 |
| CGGTGGTA | 0.0785 |
| GCCAATCA | -0.243 |
| GAGGCAGC | -0.166 |
| GAGTTGGA | -0.0843 |
| GACATCCA | -0.00911 |

| Sequence | PBM E-score |
| --- | --- |
| GGATCTCA | 0.00508 |
| AATGCGGC | 0.0593 |
| CGTGATAC | -0.115 |
| GTATGGGA | 0.0312 |
| ATTTGACG | -0.0225 |
| CCTCCCTC | 0.0321 |
| GCAACTCC | 0.0985 |
| ATCAGATG | -0.253 |
| GAACCCAA | -0.0995 |
| CTACGCCC | -0.207 |
| CTATAAAC | 0.055 |
| AACGGGAT | 0.246 |
| TAGTTCGA | -0.239 |
| AGTAGGGC | -0.0403 |
| CCACCAGG | -0.0205 |
| ACCCTTTG | -0.0784 |
| CGTTTTAC | -0.0166 |
| GCGCGAAC | 0.0411 |
| CAAAGTCG | -0.12 |
| AGTGGTAG | -0.182 |
